This is one part of the list. These are further read-outs of the screen, such as a control signal, another cell line or another target. No call is given for them.
Key:
Test in all cases: Primary Screen for Target Class Profiling of Small Molecule Inhibitors of Methyltransferases
[1] = target: Glycine N-methyltransferase (Homo sapiens) (UniProt Q14749); details: purified enzyme, MTase-Glo SAH luminescence; measured here: GNMT inhibition; at 40 µM; stronger effect = lower value
Summary of the method: (§1)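 Each enzyme was reacted with SAM and its substrate, with compounds tested once at 40 uM; SAH formed was read by MTase-Glo luminescence.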

[2] = target: Guanidinoacetate N-methyltransferase (Homo sapiens) (UniProt Q14353); details: purified enzyme, MTase-Glo SAH luminescence; measured here: GAMT inhibition; at 40 µM; stronger effect = lower value
Summary of the method: as §1

[3] = target: Histamine N-methyltransferase (Homo sapiens) (UniProt P50135); details: purified enzyme, MTase-Glo SAH luminescence; measured here: HNMT inhibition; at 40 µM; stronger effect = lower value
Summary of the method: as §1

[4] = target: Nicotinamide N-methyltransferase (Homo sapiens) (UniProt P40261); details: purified enzyme, MTase-Glo SAH luminescence; measured here: NNMT inhibition; at 40 µM; stronger effect = lower value
Summary of the method: as §1

[5] = target: Phenylethanolamine N-methyltransferase (Homo sapiens) (UniProt P11086); details: purified enzyme, MTase-Glo SAH luminescence; measured here: PNMT inhibition; at 40 µM; stronger effect = lower value
Summary of the method: as §1
On the % scale 0 is the no-effect control and ±100 the full control effect.

SMILES	activity change, negative = inhibition [1]	activity change, negative = inhibition [2]	activity change, negative = inhibition [3]	activity change, negative = inhibition [4]	activity change, negative = inhibition [5]
CCC(C)NC(=O)c1ccc2c(=O)n(C(C)C)c3nn(CC(=O)NCc4ccc(C)cc4)c(=O)n3c2c1 (centres undefined)	5.07%	0.068%	1.52%	3.38%	4.08%
COc1ccc(Cn2cnc3cccnc32)cc1	-7.32%	-8.39%	-2.81%	-16.2%	-8.8%
CN(C)c1ccc(C2NC(C(=O)O)Cc3c2[nH]c2ccccc32)cc1 (centres undefined)	0.9%	3.57%	-4.83%	-3.22%	-4.54%
CN1CCN(c2nc(-c3ccc(C(=O)NC4(C(=O)NCC#N)CCCCC4)cc3)cs2)CC1	6.11%	0.396%	0.439%	-12.2%	-5.86%
Clc1ccc(-c2csc(NN=C3CCCC3)n2)cc1	-59.4%		8.2%	-14%	-4.7%
CC1(C(=O)NC2CCCCCC2)Cn2c(cc3occc32)C(=O)N1Cc1ccccc1F (centres undefined)	0.483%	2.33%	6.44%	-7.15%	-1.78%
CN1C[C@H](NC(=O)c2cnccn2)CCC[C@@H](C(=O)N(C)Cc2cccnc2)CC1=O	-1.81%	-4.46%	-1.46%	-1.55%	-2.08%
COc1cccc(Cn2nc3n(CC(C)C)c(=O)c4ccc(C(=O)NC5CCCCC5)cc4n3c2=O)c1	5.24%	4.48%	4.23%	-0.52%	-0.384%
Cc1ccc(-c2nnc([C@H]3CCN(C(=O)COc4ccccc4)C3)o2)cc1	-4.43%	-2.81%	-3.22%	-11.5%	-22%
CN(CC(=O)NCCC1=CCCCC1)S(=O)(=O)c1ccc2[nH]c3c(c2c1)CCCC3	-7.99%	-1.88%	-8.46%	-8.98%	-6.74%
O=S(=O)(c1cccc(-c2nc(-c3ccccc3)no2)c1)N1CCCc2ccccc21	-7.01%	2.23%	-3.62%	-4.1%	-3.56%
COc1ccc(C2(CNC(=O)c3ccc(NC(=O)c4ccco4)cc3)CCOCC2)cc1	-1.59%	-1.43%	5.42%	-12.4%	-2.39%
CC(C)NC(=O)c1ccc2c(=O)n(C(C)C)c3nn(CC(=O)NCc4ccccc4)c(=O)n3c2c1	-1.21%	3.93%	1.38%	-5.6%	3.31%
CC(=O)OC1CC2C(C)(C)C(=O)C=CC2(C)C2CC(=O)C3=C(CCC3C3=CC(O)OC3=O)C12C (centres undefined)	0%	4.78%	4.2%	-12.1%	3.07%

From PubChem BioAssay AID1745853 (National Center for Advancing Translational Sciences (NCATS), 2022)
